From PubChem BioAssay AID686978 (National Center for Advancing Translational Sciences (NCATS), 2013)
Among all 420,000 compounds or so, about 64,000 (15%) were called active. Inconclusive means that the source gave no clear call. Such entries were picked first, then a sample of the others. Calls follow the shape of the dose curve; as a rule, active = well fitted inhibition curve with a large enough effect; inconclusive = small, poorly fitted or top-dose-only effect; inactive = flat fitted curve, though single readings scatter. Potencies of inconclusive entries are left out as doubtful fits.

experiment: qHTS for Inhibitors of human tyrosyl-DNA phosphodiesterase 1 (TDP1): qHTS in cells in absence of CPT; conditions: DT40 Tdp1-/- hTDP1 cells, no CPT, ATP luminescence, 48 h; activity change, negative = growth inhibition: at 46.2 µM (top of the series) unless noted; also: nearly all actives have a fitted effect of over 55% in size
Summary of the method: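 Luminescent ATP content (CellTiter-Glo) served as the growth readout. Knockout chicken DT40 cells expressing human TDP1 were exposed to compounds without camptothecin for a minimum 48 hr at 37 °C.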
% is scaled to controls: 0 for no effect and ±100 for the full control effect; potency is read from the fitted curve at half-maximal effect; tags tell the direction and shape of the fitted curve.

| Structure (SMILES) | Potency | activity change, negative = growth inhibition |
| --- | --- | --- |
| Cc1ccccc1C(=O)Nc1ccc(O)c2c(=O)cc(-c3ccccc3Cl)oc12 | inconclusive [inhibitor, single point] | – |
| CC(=O)Nc1nc2cc(C(N)=O)ccc2s1 | inactive | – |
| Cn1nc(C(=O)NNC(=O)c2ccc(Cl)cc2)ccc1=O | inactive | – |
| O=C(Cn1nnc(-c2ccc(CN3CCOCC3)cc2)n1)N1CCCc2ccccc21 | inconclusive [inhibitor, single point] | – |
| CCOC(=O)C1CCN(S(=O)(=O)c2ccc3c(c2)CC(C)N3C(=O)C2CC2)CC1 (stereo not drawn) | inconclusive [inhibitor, single point] | – |
| Cc1ccc(O)c(C(=O)c2cnn(-c3ccccc3)c2)c1 | active: 11.6 µM | – |
| O=C(Nc1ccn(Cc2ccccc2F)n1)c1ccc(COc2ccc(Cl)cc2Cl)o1 | active: 25.9 µM | – |
| Cc1nnc(SCC(=O)N2CCc3ccccc3C2)s1 | inactive | – |
| COc1ccc(C(=O)NCCn2cc(SCC(=O)Nc3cccc(C)c3)c3ccccc32)cc1 | inconclusive [inhibitor, single point] | – |
| CCCCNc1c(-c2cccnc2)nc2nc(C)cc(C)n12 | active: 11.6 µM | – |
| COC(=O)c1ccc(C)c(NC(=O)C2CC(=O)N(C3CCCC(C)C3C)C2)c1 (stereo not drawn) | inconclusive [inhibitor, full curve] | – |
| O=c1c2cnn(-c3ccccc3)c2nc(-c2cccs2)n1-c1ccc(Br)cc1 | active: 0.58 µM | – |
| NNC(=O)CS(=O)(=O)c1ccc(Cl)cc1 | inactive | – |
| Cc1ccc(-c2nc3ccccc3s2)cc1NC(=S)NC(=O)c1cccc2ccccc12 | inconclusive [inhibitor, single point] | – |
| Cc1noc(C)c1C(=O)NCC1COc2ccccc2O1 (stereo not drawn) | inactive | – |
| COc1ccc(/C=C/C(=O)Nc2cc(C(F)(F)F)ccc2Cl)cc1OC | inconclusive [inhibitor, single point] | – |
| CCOc1cccc(-c2cc(C(=O)N/N=C/c3ccc(OC)c(CN4CCOCC4)c3)c3ccccc3n2)c1 | active: 16.4 µM | – |
| COc1ccc(NC(=S)NCCc2c[nH]c3ccccc23)cc1 | inconclusive [inhibitor, single point] | – |
| Cc1ccc(S(=O)(=O)N2CCN(CC(=O)N/N=C/c3ccc(Br)s3)CC2)cc1 | active: 14.6 µM | – |
| CCOc1ccc(OCCC(=O)OCC(=O)Nc2ccc(N3CCOCC3)cc2)cc1 | inconclusive [inhibitor, single point] | – |
| O=C(O)/C=C/c1ccc(-n2ccnc2)cc1 | inactive | – |
| CC1CC1C(=O)OCC(=O)NC(=O)NC12CC3CC(CC(C3)C1)C2 (stereo not drawn) | inconclusive [inhibitor, single point] | – |
| CC(=O)Nc1ccc(S(=O)(=O)N(C)CC(=O)N2CCN(C(=O)c3ccco3)CC2)cc1 | inactive | – |
| CCN(CC)S(=O)(=O)c1ccc(NC(=O)c2cccs2)cc1 | inconclusive [inhibitor, single point] | – |
| COc1ccc2c(c1)OC[C@H]1[C@H]2N2C(=O)[C@H](C)NC(=O)[C@@]2(C)[C@H]1c1ccccc1 | inactive | – |

| Structure (SMILES) | Potency | activity change, negative = growth inhibition |
| --- | --- | --- |
| Cc1cc(N2CCCCC2)nc2ccc(NC(=O)c3ccc(Br)o3)cc12 | inconclusive [inhibitor, single point] | – |
| CC(C)c1cc(Cn2c3ccccc3c(=O)n2C(C)CBr)on1 (stereo not drawn) | inconclusive [inhibitor, partial curve, poor fit] | – |
| O=C(CN1CCN(Cc2ccccc2)CC1)N1CCN(c2ccccc2)CC1 | inconclusive [inhibitor, single point] | – |
| OCCN1CCN(CCCc2c3c(cc4c2CCC4)CCC3)CC1 | inactive | – |
| COc1ccc(C(=O)N(C)[C@H]2C[C@H]3c4[nH]c5ccccc5c4CCN3C(=O)[C@H]2CO)cc1 | inconclusive [inhibitor, single point] | – |
| CCOC(=O)N1CCN(C(=O)CN2C(=O)/C(=C\c3cccc(OC)c3)SC2=S)CC1 | active: 8.91 µM | – |
| CN(Cc1cccc(C(F)(F)F)c1)C(=O)C1CCC(=O)N(CC2CCCCC2)C1 (stereo not drawn) | active: 16.4 µM | – |
| OC(COc1ccc(Br)cc1)CN1CCN(c2ccccc2)CC1 (stereo not drawn) | inconclusive [inhibitor, partial curve, poor fit] | – |
| COc1ccccc1NC(=O)c1cnc(SCC(=O)NCCc2ccccc2)n(C)c1=O | active: 10.3 µM | – |
| COc1ccc(CCNCCN2CCOCC2)cc1 | inactive | – |
| O=C(NCCc1csc(-c2ccccc2)n1)c1ccc(Br)o1 | active: 20.6 µM | – |
| COC(=O)c1ccccc1COc1cccn2c(N(C)CC3CC3)c(C)nc12 | active: 18.4 µM | – |
| C=C(C)Cn1c(=O)c2c(nc3n2CCCN3Cc2ccccc2)n(C)c1=O | inactive | – |
| O=c1ccc(-c2nc3ccccc3n2Cc2ccc(Cl)cc2)c[nH]1 | inconclusive [inhibitor, single point] | – |
| Cc1ccc(N(C(=O)CNC(=O)c2ccco2)C(C(=O)NC2CCCCC2)c2cccnc2)c(C)c1 (stereo not drawn) | inactive | – |
| CCOc1cc(C(=O)Nc2cc(C)ccc2C)ccc1OCC(=O)N1CCCCC1 | inconclusive [inhibitor, single point] | – |
| CCc1nn(-c2ccccc2)c2nc(-c3cccc(OC)c3)c3cc(OC)c(OC)cc3c12 | inactive | – |
| COc1ccc2c(C)cc(N3CCCCCC3)nc2c1 | inconclusive [inhibitor, partial curve, poor fit] | – |
| Fc1cccc(Nc2nc3ccccc3n3nnnc23)c1 | inconclusive [inhibitor, full curve, poor fit] | – |
| COc1ccc(/C=C/C(=O)OCC(=O)NCCC2=CCCCC2)cc1 | inactive | – |
| CC1(C(=O)NS(=O)(=O)c2ccc(Cl)cc2)CCN1C(=O)Cc1ccsc1 (stereo not drawn) | inactive | – |
| CCOc1ccc(OCc2cccc(C(=O)N(CC)CC)c2)cc1 | inconclusive [inhibitor, single point] | – |
| CC1CC(=O)Nc2ccccc2N1C(=O)COc1ccc2cc(Br)ccc2c1 (stereo not drawn) | inconclusive [inhibitor, single point] | – |
| CC(=O)N1CCN(c2ccccc2NC(=O)c2ccc3ccccc3c2)CC1 | inconclusive [inhibitor, partial curve] | – |
| CC(=O)Nc1ccc(Br)c2ccccc12 | – | inconclusive: -27.9% [inhibitor] |

| Structure (SMILES) | Potency | activity change, negative = growth inhibition |
| --- | --- | --- |
| COC(=O)c1ccc(N2CCOCC2)c(NC(=O)c2cccnc2)c1 | inactive | – |
| CC(C)Oc1cccc(C(=O)NC(=S)Nc2cccc(C(F)(F)F)c2)c1 | inconclusive [inhibitor, single point] | – |
| CSc1ccc(Cn2c(C)c(C(=O)NCc3ccc(Cl)c(Cl)c3)sc2=O)cc1 | inconclusive [inhibitor, single point] | – |
| CCOC(=O)CSc1nc(C)c2ccc(C)cc2n1 | inconclusive [inhibitor, partial curve, poor fit] | – |
| CCN(CC)C(=O)c1ccc2c(=O)n(Cc3cccc(Br)c3)c(=S)[nH]c2c1 | active: 14.6 µM | – |
| CCn1c(Cn2nnc(-c3ccccc3)n2)nnc1SCC(=O)N1CCOCC1 | inactive | – |
| COc1ccccc1N1CCN(C(=O)Cn2ncc3c([nH]c4ccccc43)c2=O)CC1 | inconclusive [inhibitor, partial curve] | – |
| COc1ccc(-c2cc(C(=O)N3CCN(c4ncccn4)CC3)c3ccccc3n2)cc1 | inconclusive [inhibitor, single point] | – |
| Cc1cc(/C=N/NC(=O)Cn2c3ccccc3c(=O)c3ccccc32)c(C)n1-c1ccc(Cl)cc1 | active: 29.1 µM | – |
| O=C(CCC(=O)N1CCCc2ccccc21)N1CCN(S(=O)(=O)c2ccccc2)CC1 | inconclusive [inhibitor, single point] | – |
| Cc1ccc(N(CC(O)COCc2ccco2)S(=O)(=O)c2ccc(C)cc2)cc1 (stereo not drawn) | inconclusive [inhibitor, single point] | – |
| CCOC(=O)c1cc(-c2ccccc2)sc1NC(=O)CSc1nnc(N)s1 | inactive | – |
| O=C(C/C=N/OCc1c(Cl)cccc1Cl)c1ccc(Cl)cc1 | inconclusive [inhibitor, single point] | – |
| CC(SC(C)C(=O)NN=Cc1cccc(F)c1)C(=O)NN=Cc1cccc(F)c1 (stereo not drawn) | inconclusive [inhibitor, single point] | – |
| CC1CCCCN1C(=O)c1cccc(NC2=C(Cl)C(=O)N(Cc3ccccc3)C2=O)c1 (stereo not drawn) | inconclusive [inhibitor, single point] | – |
| CC(C)N(C(=O)COC(=O)CCC(=O)c1cccs1)c1ccccc1 | inactive | – |
| CCCCOc1ccc(/C=N/NC(=O)c2csc(C)c2C)cc1 | inconclusive [inhibitor, single point] | – |
| Cn1cc(CN2CCC(C(=O)Nc3cccc(-c4cscn4)c3)CC2)cn1 | inactive | – |
| O=C(COC(=O)c1c[nH]c2ccccc12)Nc1ccc(F)cc1 | inactive | – |
| COc1ccc2[nH]c3c(NCCCOC(C)C)ncnc3c2c1 | inconclusive [inhibitor, single point] | – |
| Cc1ccc(C(=O)N2CCN(c3ccc(NC(=O)c4ccc5c(c4)OCCO5)cc3)CC2)cc1 | inconclusive [inhibitor, single point] | – |
| O=C(NC(Nc1ccccn1)C(Cl)(Cl)Cl)c1ccccc1 (stereo not drawn) | inconclusive [inhibitor, single point] | – |
| COc1cccc(NC(=O)CSC2=Nc3ccccc3N=C(c3ccc(F)cc3)C2)c1 | inconclusive [inhibitor, single point] | – |
